In publication PMC9009768:
These are yes or no findings as the source states them, for the method shown. Binding seen in cells or lysates may run through a third protein. Some results given as binding are weak or reduced against the parent protein; the word gives no strength.

Sequences of proteins named here, by UniProt entry; tags and fusion partners are left off. A change or cut given only in a name is not applied to a line headed by its entry. A line that says so, or that is headed by a name, gives the form on record, which may keep a tag or linker. Residues count along the entry.
UniProt P15682: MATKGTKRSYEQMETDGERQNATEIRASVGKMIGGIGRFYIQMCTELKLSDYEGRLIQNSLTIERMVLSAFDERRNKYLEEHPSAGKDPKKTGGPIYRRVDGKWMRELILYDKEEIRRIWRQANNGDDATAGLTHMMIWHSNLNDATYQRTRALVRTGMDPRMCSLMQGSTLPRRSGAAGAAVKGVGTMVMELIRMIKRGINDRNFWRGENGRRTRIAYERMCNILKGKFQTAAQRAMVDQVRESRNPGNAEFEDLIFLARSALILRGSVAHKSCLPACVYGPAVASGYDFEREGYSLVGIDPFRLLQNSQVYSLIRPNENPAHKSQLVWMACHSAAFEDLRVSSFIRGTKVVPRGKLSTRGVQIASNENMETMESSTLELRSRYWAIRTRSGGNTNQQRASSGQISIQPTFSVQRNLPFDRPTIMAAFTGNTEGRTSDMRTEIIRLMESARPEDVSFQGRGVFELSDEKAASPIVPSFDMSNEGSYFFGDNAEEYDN
UniProt O75925: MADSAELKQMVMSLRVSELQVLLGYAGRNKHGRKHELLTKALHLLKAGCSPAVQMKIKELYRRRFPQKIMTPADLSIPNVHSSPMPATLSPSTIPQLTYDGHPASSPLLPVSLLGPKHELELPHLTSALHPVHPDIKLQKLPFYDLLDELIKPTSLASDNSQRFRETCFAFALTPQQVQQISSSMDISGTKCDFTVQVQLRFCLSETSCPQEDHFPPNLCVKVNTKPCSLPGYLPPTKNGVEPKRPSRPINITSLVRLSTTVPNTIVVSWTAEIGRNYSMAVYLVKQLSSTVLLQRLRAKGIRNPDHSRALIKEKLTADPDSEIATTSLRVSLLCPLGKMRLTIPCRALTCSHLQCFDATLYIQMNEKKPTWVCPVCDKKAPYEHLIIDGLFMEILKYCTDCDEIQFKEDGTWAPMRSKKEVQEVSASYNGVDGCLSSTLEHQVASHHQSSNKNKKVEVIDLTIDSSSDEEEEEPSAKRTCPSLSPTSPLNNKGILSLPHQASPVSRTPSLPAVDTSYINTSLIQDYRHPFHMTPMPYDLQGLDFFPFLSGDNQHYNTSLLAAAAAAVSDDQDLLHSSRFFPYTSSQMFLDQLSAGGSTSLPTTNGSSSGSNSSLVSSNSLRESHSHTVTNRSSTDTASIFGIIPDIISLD
UniProt P03430: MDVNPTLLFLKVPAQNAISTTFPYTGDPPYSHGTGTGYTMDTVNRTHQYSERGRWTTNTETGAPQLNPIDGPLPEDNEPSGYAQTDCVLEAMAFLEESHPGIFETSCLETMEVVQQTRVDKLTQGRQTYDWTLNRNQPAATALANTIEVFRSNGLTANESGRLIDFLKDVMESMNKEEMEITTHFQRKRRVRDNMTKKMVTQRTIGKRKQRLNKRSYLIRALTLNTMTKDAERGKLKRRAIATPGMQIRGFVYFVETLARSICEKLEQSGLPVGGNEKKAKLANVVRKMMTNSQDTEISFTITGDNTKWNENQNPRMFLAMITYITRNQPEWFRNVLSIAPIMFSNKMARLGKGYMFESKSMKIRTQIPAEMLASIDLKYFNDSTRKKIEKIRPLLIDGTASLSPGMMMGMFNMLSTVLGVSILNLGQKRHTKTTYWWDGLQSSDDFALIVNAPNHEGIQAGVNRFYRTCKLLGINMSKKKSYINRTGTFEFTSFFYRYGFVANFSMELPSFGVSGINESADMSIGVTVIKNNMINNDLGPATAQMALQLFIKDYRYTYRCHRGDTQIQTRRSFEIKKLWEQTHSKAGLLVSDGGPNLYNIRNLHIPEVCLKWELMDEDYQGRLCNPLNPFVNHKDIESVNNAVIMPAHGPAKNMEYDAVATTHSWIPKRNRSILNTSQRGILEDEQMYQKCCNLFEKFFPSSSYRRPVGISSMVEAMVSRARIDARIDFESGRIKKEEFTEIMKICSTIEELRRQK
UniProt P03427: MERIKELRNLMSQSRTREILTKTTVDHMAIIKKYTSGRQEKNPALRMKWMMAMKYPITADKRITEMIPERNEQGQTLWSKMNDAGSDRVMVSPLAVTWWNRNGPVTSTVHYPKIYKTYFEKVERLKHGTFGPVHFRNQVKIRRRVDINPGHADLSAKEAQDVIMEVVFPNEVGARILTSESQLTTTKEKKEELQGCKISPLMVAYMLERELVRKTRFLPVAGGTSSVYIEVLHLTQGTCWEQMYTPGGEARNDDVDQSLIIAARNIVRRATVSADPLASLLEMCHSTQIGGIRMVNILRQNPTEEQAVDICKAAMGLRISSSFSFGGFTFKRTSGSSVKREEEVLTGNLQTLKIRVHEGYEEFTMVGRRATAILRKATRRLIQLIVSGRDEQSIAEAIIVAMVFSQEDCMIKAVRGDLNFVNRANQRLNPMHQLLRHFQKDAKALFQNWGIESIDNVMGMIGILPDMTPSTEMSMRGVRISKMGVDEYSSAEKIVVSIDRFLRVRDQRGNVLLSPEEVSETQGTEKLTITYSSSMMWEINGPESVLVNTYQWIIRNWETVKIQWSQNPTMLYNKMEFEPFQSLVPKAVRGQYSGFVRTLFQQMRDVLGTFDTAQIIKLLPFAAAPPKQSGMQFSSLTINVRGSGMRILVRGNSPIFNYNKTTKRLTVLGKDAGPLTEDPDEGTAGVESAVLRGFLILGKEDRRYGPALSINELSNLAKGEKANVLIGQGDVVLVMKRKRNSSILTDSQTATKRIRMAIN
Flag-PIASxα (O75928-2, form named): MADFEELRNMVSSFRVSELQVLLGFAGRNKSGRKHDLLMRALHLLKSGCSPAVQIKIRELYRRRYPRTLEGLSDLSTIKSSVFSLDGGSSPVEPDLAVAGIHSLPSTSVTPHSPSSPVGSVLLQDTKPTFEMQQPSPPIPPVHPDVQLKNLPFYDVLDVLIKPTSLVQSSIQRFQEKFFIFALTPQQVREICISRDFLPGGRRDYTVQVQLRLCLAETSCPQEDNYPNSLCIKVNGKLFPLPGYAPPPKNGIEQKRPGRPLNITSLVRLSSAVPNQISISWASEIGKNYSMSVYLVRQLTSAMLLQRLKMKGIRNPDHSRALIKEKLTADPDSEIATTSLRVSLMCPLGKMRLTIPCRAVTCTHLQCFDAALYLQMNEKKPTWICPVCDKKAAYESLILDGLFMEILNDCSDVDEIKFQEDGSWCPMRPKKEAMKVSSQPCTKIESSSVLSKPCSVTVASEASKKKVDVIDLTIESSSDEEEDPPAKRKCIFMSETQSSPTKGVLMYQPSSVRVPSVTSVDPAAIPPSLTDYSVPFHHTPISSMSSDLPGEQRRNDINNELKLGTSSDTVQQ
UniProt P03454, residues 18-565: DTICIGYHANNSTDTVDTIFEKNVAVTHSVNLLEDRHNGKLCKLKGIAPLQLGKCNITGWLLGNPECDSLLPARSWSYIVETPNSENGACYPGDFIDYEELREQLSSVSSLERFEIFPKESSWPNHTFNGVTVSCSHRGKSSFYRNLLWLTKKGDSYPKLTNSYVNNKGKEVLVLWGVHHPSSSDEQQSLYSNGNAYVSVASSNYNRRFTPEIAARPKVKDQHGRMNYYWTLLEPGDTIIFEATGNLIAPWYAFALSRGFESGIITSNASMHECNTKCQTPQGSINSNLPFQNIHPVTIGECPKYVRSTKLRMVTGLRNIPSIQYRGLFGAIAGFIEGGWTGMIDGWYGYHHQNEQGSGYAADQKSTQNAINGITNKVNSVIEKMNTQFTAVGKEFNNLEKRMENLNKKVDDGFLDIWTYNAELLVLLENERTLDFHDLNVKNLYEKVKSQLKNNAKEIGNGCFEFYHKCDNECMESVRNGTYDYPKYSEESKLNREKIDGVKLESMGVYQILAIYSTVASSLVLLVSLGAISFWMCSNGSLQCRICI
UniProt P05777: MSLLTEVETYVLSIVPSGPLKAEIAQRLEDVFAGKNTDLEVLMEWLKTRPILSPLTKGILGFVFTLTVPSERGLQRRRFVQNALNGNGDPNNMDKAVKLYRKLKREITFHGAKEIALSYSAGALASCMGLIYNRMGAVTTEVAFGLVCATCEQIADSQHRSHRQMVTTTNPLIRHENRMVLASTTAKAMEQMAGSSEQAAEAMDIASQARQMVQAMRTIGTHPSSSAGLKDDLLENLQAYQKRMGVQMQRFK
UniProt P03470: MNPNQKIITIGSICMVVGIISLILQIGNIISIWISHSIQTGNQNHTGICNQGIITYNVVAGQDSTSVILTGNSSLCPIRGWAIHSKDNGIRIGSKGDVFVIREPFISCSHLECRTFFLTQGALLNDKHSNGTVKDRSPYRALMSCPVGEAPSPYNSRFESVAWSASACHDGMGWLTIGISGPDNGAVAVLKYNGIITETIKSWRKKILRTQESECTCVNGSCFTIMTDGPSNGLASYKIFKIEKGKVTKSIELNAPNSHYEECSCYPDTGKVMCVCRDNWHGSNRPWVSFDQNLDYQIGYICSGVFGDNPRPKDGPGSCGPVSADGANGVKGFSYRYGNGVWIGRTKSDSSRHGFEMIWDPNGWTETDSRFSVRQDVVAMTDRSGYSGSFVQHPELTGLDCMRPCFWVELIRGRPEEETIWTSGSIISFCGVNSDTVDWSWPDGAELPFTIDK

Experiments:
Experiment in all cases: co-IP
[1] = biological target: V5-tagged NP of A/WSN/33 (WSN, H1N1) virus (influenza A virus A/WSN/33 (H1N1)) (UniProt P15682)
[2] = biological target: Myc-tagged PIAS1 (protein inhibitor of activated STAT 1) (human) (UniProt O75925)
[3] = biological target: IAV PB1 in WSN (H1N1) virus-infected cells (influenza A virus A/WSN/33 (H1N1)) (UniProt P03430)
[4] = biological target: IAV NP in WSN (H1N1) virus-infected cells (influenza A virus A/WSN/33 (H1N1)) (UniProt P15682)
[5] = biological target: IAV PB2 in WSN (H1N1) virus-infected cells (influenza A virus A/WSN/33 (H1N1)) (UniProt P03427)

Substance	binding [2]	also measured
Flag-PIASxα (from UniProt O75928-2 1-572)		binding [1]: binds
HA of WSN (H1N1) virus (from UniProt P03454)	no binding	
M1 of WSN (H1N1) virus (from UniProt P05777 1-252)	no binding	
Myc-tagged PIAS1 (protein inhibitor of activated STAT 1) (from UniProt O75925 1-651)		binding [3]: binds; binding [1]: binds; binding [4]: binds; binding [5]: binds
NA of WSN (H1N1) virus (from UniProt P03470 1-453)	no binding	
V5-tagged NP of A/WSN/33 (WSN, H1N1) virus (from UniProt P15682 1-498)	binds	
WSNPB1 (polymerase basic protein 1 of WSN (H1N1) virus) (from UniProt P03430 1-757)	binds	
WSNPB2 (polymerase basic protein 2 of WSN (H1N1) virus) (from UniProt P03427 1-759)	binds	
